# Assay results as given in the supplement of paper PMC3334620.
# In all, about 33,000 sequences were measured (“E-score (-0.5 to 0.5)”: median about -0.01, highest 2% from about 0.26 on). Some of the results follow.
# Biological target: Ste12 (UniProt P13574)
# Assay: PBM E-score (8-mer binding enrichment) (E-score (-0.5 to 0.5)); higher = stronger / more preferred TF binding; most listed sequences are background and not binding sites
# Settings: protein concentration: 200 nM; construct: GST-DNA-binding domain
# Procedure, shortened: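 Detection of bound protein used fluorescent anti-GST, with scans normalised by masliner. The proteins were GST-tagged yeast transcription factors applied at about 100-200 nM to universal all-10-mer Agilent arrays made double-stranded by primer extension. Each ungapped eight-base word, pooled with its reverse complement, was scored with an E-score from the Universal PBM Analysis Suite.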
row,Sequence,PBM E-score
1,TGTACGAA,0.0665
2,CAGTAGGC,-0.0958
3,AACCCAAG,0.0412
4,CGGGGCGA,0.163
5,AGTACGAT,0.0966
6,GAAGCAAA,-0.0245
7,AAGCGGCA,0.138
8,AAGTTGCA,-0.0946
9,GAGATATA,0.039
10,ATTCCTTC,0.162
11,ATCCACAA,0.0176
12,CACGTCGC,-0.0469
13,GCAGGAGC,-0.143
14,CAGCTGAC,-0.0464
15,CACACTCG,0.138
16,ACGGCAGT,-0.142
17,CGTTGTGC,-0.177
18,AAGGCGAC,-0.133
19,CTATCGGC,-0.0597
20,CCCCTGTA,0.0764
21,CAATCAAA,0.211
22,AACAATCC,0.0898
23,ACACTAAT,0.169
24,CGGCTGTC,-0.0342

row,Sequence,PBM E-score
1,CCCGGCTC,-0.115
2,CGAGCGTC,0.0438
3,CCTTCGAA,0.0143
4,AGACTCTA,0.0686
5,TAGATTAA,0.149
6,AAGCCTCG,-0.0104
7,GATCAGAC,0.02
8,CCGCCCGC,0.181
9,ATTATTGC,0.116
10,CCTTGTAA,0.134
11,CCAAACAA,0.125
12,ACACCATG,-0.108
13,GGAAACAA,0.13
14,ACGAATAC,0.0452
15,AATACGGC,0.131
16,AGTTGTGA,0.127
17,AATTACCT,-0.0648
18,GGGCATTA,-0.19
19,CTTAGCTC,-0.112
20,CCTTCCAC,-0.197
21,GCTCACTA,-0.0368
22,ACCGGCAC,-0.028
23,ACAGTGAG,0.0377
24,CTTAGACC,-0.136

row,Sequence,PBM E-score
1,AGAGGGAG,-0.106
2,AAAATCTT,0.131
3,TCGGTAGA,-0.00813
4,CAGTCTAA,0.12
5,TGACCCCA,-0.128
6,GGCTAGCC,-0.419
7,AGTTAACG,-0.00403
8,ACGGGCTG,-0.0803
9,GGCCGTTA,0.00167
10,GGGGGGCA,-0.186
11,GTCGTTTA,0.151
12,ACCCCAGT,-0.0165
13,AGATGATG,-0.0415
14,CTTCCATA,-0.00705
15,CAGGAAGG,-0.212
16,CAGGTAGA,0.0966
17,GAGGCACA,-0.00206
18,AGGAGGCG,-0.217
19,TAAGCGTA,-0.113
20,CGCGGTTC,0.136
21,AAGGTACC,-0.113
22,GTTACAAA,0.384
23,CCAGCGCA,-0.222
24,AGGGGCTC,-0.321

row,Sequence,PBM E-score
1,TACCCTCA,-0.0714
2,GCCCAGTA,-0.164
3,GACGAACC,-0.181
4,ATGGTAGC,-0.0629
5,ACTTGTAC,0.0044
6,CCTCTTCC,-0.221
7,TTCATGAA,0.228
8,GCGTGTGA,0.159
9,AACGACCT,0.104
10,CTGTGTGA,0.195
11,CATTGCGG,0.0911
12,ATCGCAAG,-0.175
13,CAGGGGCG,0.249
14,CGCTTATC,0.12
15,ACCCGTAG,-0.2
16,ACAACCTC,-0.0148
17,GGTGTACA,0.0618
18,CTAAAGTA,-0.129
19,AACGCCTC,-0.124
20,CCAGTAAC,-0.107
21,CCAATTTA,0.201
22,AGAATGGA,0.00637
